From US20220073586A1 (EUTILEX, published 2022) come the findings set out here.

The target in the assay is PD-L1 molecules (Sino, Cat #10084-H08H) (UniProt Q9NZQ7 in part). In words: SPR, Biacore T200; PD-1 Fc fusion fixed on CM5 chip, PD-L1 injected at 3.125-100 nM. In general terms: Surface plasmon resonance follows binding to a sensor surface in real time, without labels.
Chain of UniProt Q9NZQ7 (Q9NZQ7 19-238 limits assumed): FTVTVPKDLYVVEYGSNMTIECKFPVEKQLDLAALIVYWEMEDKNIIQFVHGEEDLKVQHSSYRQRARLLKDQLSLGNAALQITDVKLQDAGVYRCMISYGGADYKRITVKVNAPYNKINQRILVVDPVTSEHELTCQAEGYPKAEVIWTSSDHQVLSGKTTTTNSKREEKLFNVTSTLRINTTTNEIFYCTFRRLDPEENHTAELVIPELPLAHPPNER

B1: wild-type PD-1 Fc fusion protein (Fc fusion)
chain: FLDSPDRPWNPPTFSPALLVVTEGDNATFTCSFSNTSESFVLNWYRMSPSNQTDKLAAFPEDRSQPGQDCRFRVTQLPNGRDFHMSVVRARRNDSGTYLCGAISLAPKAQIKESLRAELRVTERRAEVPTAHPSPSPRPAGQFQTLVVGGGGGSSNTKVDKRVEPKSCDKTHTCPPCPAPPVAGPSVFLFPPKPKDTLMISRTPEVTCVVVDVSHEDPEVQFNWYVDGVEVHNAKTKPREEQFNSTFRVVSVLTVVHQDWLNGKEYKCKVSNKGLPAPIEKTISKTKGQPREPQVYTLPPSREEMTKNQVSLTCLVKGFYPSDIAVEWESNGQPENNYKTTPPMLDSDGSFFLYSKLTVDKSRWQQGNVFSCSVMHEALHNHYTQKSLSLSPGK
notes: Built from plasmid 'PD1-G4S linker-Fc'; the human PD-1 signal peptide ([…], […]) is left out; also called PD-1 wild type
On to B1, for which binding was characterised by a dissociation constant (Kd) of 42.9 nM, the koff was 0.0102 s⁻¹ and the kon turned out to be 237000 M⁻¹ s⁻¹.

By Kd is commonly meant the free concentration of one partner at which half of the binding sites on the other are occupied at equilibrium, for simple one-to-one binding. Read a low Kd as higher affinity. Usually koff stands for a measure of how fast the partners let go of each other. As usually defined, the kon is the rate constant with which the complex forms. Higher therefore signals fast association.
